Data published in the supplement of paper PMC4967469.

Assays:
Assay in all cases: Viability of human cancer cell lines after 72 h of drug (GDSC screen)
[1] = compound: Cc1cnc(CNC(=O)c2c(=O)c3ccc(N4CCCN(C)CC4)nc3n3c2sc2ccccc23)cn1 [CX-5461]; conditions: top dose 10.24 µM; top dose inferred
Protocol: (§1)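 Human cancer cell lines in 384-well plates, medium with 10% serum, drug for 72 h over a 256-fold dose range (nine 2-fold or five 4-fold steps up to the top dose). Adherent lines were fixed and stained with the nucleic acid dye Syto60, suspension lines read with resazurin; signal relative to control wells, capped at 0 and 100%. One two-parameter sigmoid per drug and line, fitted in a mixed model over all curves with the slope shared within a line.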

[2] = compound: COC1=CC(c2cc3ccccc3[nH]2)=N/C1=C\c1[nH]c(C)cc1C [Obatoclax mesylate]; conditions: top dose 16 µM
Protocol: as §1

[3] = compound: Cc1cccc(Nc2nc(-c3ccncc3)cs2)c1 [STF-62247]; conditions: top dose 10.24 µM; top dose inferred
Protocol: as §1

[4] = compound: COCC(=O)NC/C=C/c1ccc2ncnc(Nc3ccc(Oc4ccc(C)nc4)c(C)c3)c2c1 [CP724714]; conditions: top dose 10.24 µM; top dose inferred
Protocol: as §1

Row | Cell Line | AUC [1] | IC50 [1] [µM] | AUC [2] | IC50 [2] [µM] | AUC [3] | IC50 [3] [µM] | AUC [4] | IC50 [4] [µM]
1 | CS1 (bone, adherent) | 0.813 | 6.35 | 0.452 | 0.73 | 0.955 | > 10.2 | 0.954 | > 10.2
2 | Ca9-22 (head and neck, adherent) | 0.921 | > 10.2 | 0.156 | 0.0974 | 0.978 | > 10.2 | 0.954 | > 10.2
3 | Ca-Ski (cervix, adherent) | 0.751 | 3.75 | 0.321 | 0.296 | 0.959 | > 10.2 | 0.925 | > 10.2
4 | CaR-1 (large intestine, adherent) | 0.949 | > 10.2 | 0.695 | 4.7 | 0.965 | > 10.2 | 0.976 | > 10.2
5 | Calu-3 (lung adenocarcinoma, adherent) | 0.983 | > 10.2 | 0.311 | 0.255 | 0.982 | > 10.2 | 0.763 | 4.62
6 | Calu-6 (lung adenocarcinoma, adherent) | 0.881 | > 10.2 | 0.236 | 0.15 | 0.983 | > 10.2 | 0.978 | > 10.2
7 | Caov-3 (ovary, adherent) | 0.952 | > 10.2 | 0.571 | 1.52 | 0.989 | > 10.2 | 0.978 | > 10.2
8 | Capan-2 (pancreas, adherent) | 0.963 | > 10.2 | 0.408 | 0.531 | 0.984 | > 10.2 | 0.98 | > 10.2
9 | ChaGo-K-1 (non-small cell lung carcinoma, adherent) | 0.981 | > 10.2 | 0.407 | 0.531 | 0.984 | > 10.2 | 0.979 | > 10.2
10 | DAN-G (pancreas, adherent) | 0.988 | > 10.2 | 0.615 | 1.98 | 0.978 | > 10.2 | 0.975 | > 10.2
11 | DBTRG-05MG (glioma, adherent) | 0.957 | > 10.2 | 0.559 | 1.5 | 0.972 | > 10.2 | 0.975 | > 10.2
12 | DK-MG (glioma, adherent) | 0.96 | > 10.2 | 0.491 | 0.937 | 0.961 | > 10.2 | 0.978 | > 10.2
13 | DMS-53 (small cell lung carcinoma, adherent) | 0.988 | > 10.2 | 0.406 | 0.54 | 0.985 | > 10.2 | 0.971 | > 10.2
14 | DMS-273 (small cell lung carcinoma, adherent) | 0.776 | 4.33 | 0.114 | < 0.0625 | 0.962 | > 10.2 | 0.972 | > 10.2
15 | DOK (head and neck, adherent) | 0.961 | > 10.2 | 0.499 | 0.993 | 0.976 | > 10.2 | 0.931 | > 10.2
16 | DU-145 (prostate, adherent) | 0.856 | 9.76 | 0.383 | 0.459 | 0.964 | > 10.2 | 0.985 | > 10.2

Row | Cell Line | AUC [1] | IC50 [1] [µM] | AUC [2] | IC50 [2] [µM] | AUC [3] | IC50 [3] [µM] | AUC [4] | IC50 [4] [µM]
17 | Daoy (medulloblastoma, adherent) | 0.74 | 2.86 | 0.065 | < 0.0625 | 0.98 | > 10.2 | 0.884 | 9.25
18 | Detroit562 (head and neck, adherent) | 0.988 | > 10.2 | 0.365 | 0.431 | 0.987 | > 10.2 | 0.979 | > 10.2
19 | DoTc2-4510 (cervix, adherent) | 0.975 | > 10.2 | 0.077 | < 0.0625 | 0.989 | > 10.2 | 0.97 | > 10.2
20 | EBC-1 (lung squamous cell carcinoma, adherent) | 0.98 | > 10.2 | 0.238 | 0.156 | 0.98 | > 10.2 | 0.971 | > 10.2
21 | ECC10 (stomach, suspension) | 0.972 | > 10.2 | 0.547 | 1.35 | 0.961 | > 10.2 | 0.962 | > 10.2
22 | EFM-19 (breast, adherent) | 0.968 | > 10.2 | 0.232 | 0.107 | 0.978 | > 10.2 | 0.966 | > 10.2
23 | EFM-192A (breast, adherent) | 0.929 | > 10.2 | 0.214 | 0.129 | 0.983 | > 10.2 | 0.978 | > 10.2
24 | EFO-21 (ovary, adherent) | 0.825 | 10.2 | 0.472 | 0.809 | 0.965 | > 10.2 | 0.944 | > 10.2
25 | EFO-27 (ovary, adherent) | 0.926 | > 10.2 | 0.372 | 0.406 | 0.978 | > 10.2 | 0.925 | > 10.2
26 | EGI-1 (biliary tract, adherent) | 0.982 | > 10.2 | 0.541 | 1.33 | 0.963 | > 10.2 | 0.971 | > 10.2
27 | EN (endometrium, adherent) | 0.901 | > 10.2 | 0.689 | 3.93 | 0.983 | > 10.2 | 0.971 | > 10.2
28 | EPLC-272H (lung squamous cell carcinoma, adherent) | 0.68 | 2.19 | 0.468 | 0.808 | 0.949 | > 10.2 | 0.957 | > 10.2
29 | ESS-1 (endometrium, adherent) | 0.642 | 1.51 | 0.162 | 0.108 | 0.99 | > 10.2 | 0.984 | > 10.2
30 | EW-7 (Ewing sarcoma, semi-adherent) | 0.279 | 0.166 | 0.08 | < 0.0625 | 0.966 | > 10.2 | 0.98 | > 10.2
31 | FADU (head and neck, adherent) | 0.978 | > 10.2 | 0.202 | 0.138 | 0.984 | > 10.2 | 0.962 | > 10.2

The IC50 comes from the fitted curve, where viability falls to half of the control; a fit beyond the top or the lowest dose is shown as a bound at that dose. AUC, from the same fit, is the share of area under the viability curve across the 256-fold dose range; values near 1 show little effect. For some assays here: An inferred top dose is not printed in the source and was worked back from the curve model.
